Ki data for two substances are collected here from patent US20260327262A1, “BICYCLIC PEPTIDE LIGANDS SPECIFIC FOR EPHA2” (BicycleTx Limited, priority 2019, published 2026).

pKi: −log10 of the molar value.

This assay has as its target human EphA2 (Homo sapiens, UniProt P29317). The experiment in a line: Competition Binding Assay (fluorescence polarisation, competition with fluorescent tracer BCY90). How it is done:
Peptides without a fluorescent tag were tested in competition with a peptide with a fluorescent tag and a known Kd.
Peptides were diluted to an appropriate concentration in assay buffer as described in the direct binding assay with a maximum of 5% DMSO, then serially diluted 1 in 2. […] Measurements were conducted, however the gain was determined prior to the first measurement. Data analysis was in Systat Sigmaplot version 12.0 where the mP values were fit to a user defined cubic equation to generate a Ki value: • f=ymax+(ymin−ymax)/Lig*((Lig*((2*((Klig+Kcomp+Lig+Comp−Prot*c)^2−3*(Kcomp*(Lig−Prot*c)+Klig*(Comp−Prot*c)+Klig*Kcomp))^0.5*COS(ARCCOS((−2*(Klig+Kcomp+Lig+Comp−Prot*c)^3+9*(Klig+Kcomp+Lig+Comp−Prot*c)*(Kcomp*(Lig−Prot*c)+Klig*(Comp−Prot*c)+Klig*Kcomp)−27*(−1*Klig*Kcomp*Prot*c))/(2*((((Klig+Kcomp+Lig+Comp−Prot*c)^2−3*(Kcomp*(Lig−Prot*c)+Klig*(Comp−Prot*c)+Klig*Kcomp))^3)^0.5)))/3))−(Klig+Kcomp+Lig+Comp−Prot*c)))/((3*Klig)+((2*((Klig+Kcomp+Lig+Comp−Prot*c)^2−3*(Kcomp*(Lig−Prot*c)+Klig*(Comp−Prot*c)+Klig*Kcomp))^0.5*COS(ARCCOS((−2*(Klig+Kcomp+Lig+Comp−Prot*c)^3+9*(Klig+Kcomp+Lig+Comp−Prot*c)*(Kcomp*(Lig−Prot*c)+Klig*(Comp−Prot*c)+Klig*Kcomp)−27*(−1*Klig*Kcomp*Prot*c))/(2*((((Klig+Kcomp+Lig+Comp−Prot*c)^2−3*(Kcomp*(Lig−Prot*c)+Klig*(Comp−Prot*c)+Klig*Kcomp))^3)^0.5)))/3))−(Klig+Kcomp+Lig+Comp−Prot*c)))). […]

One may read the pKi as the Ki on a negative log10 scale, so that one unit is a factor of ten.

Sequence of human EphA2 (P29317 24-976): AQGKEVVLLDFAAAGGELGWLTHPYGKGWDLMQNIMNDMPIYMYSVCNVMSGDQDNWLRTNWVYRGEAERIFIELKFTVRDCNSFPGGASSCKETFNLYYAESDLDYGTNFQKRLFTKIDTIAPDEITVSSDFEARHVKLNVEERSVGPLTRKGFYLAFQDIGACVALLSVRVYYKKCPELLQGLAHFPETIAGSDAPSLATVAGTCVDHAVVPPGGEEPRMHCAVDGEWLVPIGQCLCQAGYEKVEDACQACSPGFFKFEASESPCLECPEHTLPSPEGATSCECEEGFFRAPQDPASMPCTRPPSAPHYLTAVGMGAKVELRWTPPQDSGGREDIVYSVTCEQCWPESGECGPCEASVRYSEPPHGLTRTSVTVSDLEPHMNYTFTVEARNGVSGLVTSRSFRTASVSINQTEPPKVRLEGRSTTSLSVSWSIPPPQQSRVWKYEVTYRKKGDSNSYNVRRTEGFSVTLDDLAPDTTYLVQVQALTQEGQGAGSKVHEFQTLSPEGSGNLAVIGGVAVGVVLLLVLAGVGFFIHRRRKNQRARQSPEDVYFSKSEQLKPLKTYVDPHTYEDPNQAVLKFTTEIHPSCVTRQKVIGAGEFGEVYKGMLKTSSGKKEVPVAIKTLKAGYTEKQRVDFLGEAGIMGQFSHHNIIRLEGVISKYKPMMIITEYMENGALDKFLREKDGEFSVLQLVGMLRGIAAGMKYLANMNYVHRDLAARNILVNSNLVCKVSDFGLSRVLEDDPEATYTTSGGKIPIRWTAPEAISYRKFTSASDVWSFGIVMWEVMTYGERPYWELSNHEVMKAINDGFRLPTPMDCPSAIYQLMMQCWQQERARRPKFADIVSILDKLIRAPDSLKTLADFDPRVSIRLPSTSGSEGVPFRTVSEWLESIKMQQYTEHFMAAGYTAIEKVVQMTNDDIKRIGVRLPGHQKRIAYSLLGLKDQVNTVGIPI

In turn, “A-[HArg]-D-Ci[HyP]LVNPLCiiLHP[dD]W[HArg]Ciii [BCY9594]” gave a pKi of 8.84.

Turning to “AD-Ci[HyP]LVNPLCiiLEP[dD]WTCiii [BCY13128]”, the pKi is 7.79.
